# According to PubChem BioAssay (NCATS):
# The shares of active, inactive and inconclusive entries below differ from those in the screen. Where a call stands in place of a potency, no number is given. For some of these results: A potency beside an inconclusive call is a rough fit, not a confirmed value. The source made the active and inactive calls. Calls follow the shape of the dose curve; as a rule, active = well fitted curve in the direction sought with a large enough effect; inconclusive = small, poorly fitted or top-dose-only effect, or another doubt; inactive = no such curve, though single readings can be large; an effect the other way counts as inactive or inconclusive.
# What was measured:
# [1] = Validation screen for small molecules that induce genotoxicity in human embryonic kidney (HEK293T) cells expressing luciferase-tagged ELG1 (AID 493106); conditions: luminescence; series mostly up to 46.1 µM; also: potency is read from the fitted curve at half-maximal effect
# Summary of the method: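 Cells were dispensed at 2,000 per well, then 23 nL compound or DMSO was pinned in. After 16 hr at 37 °C and 5% CO2, ONE-Glo reagent was added. Luciferase activity was measured following 30 min at room temperature.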
# [2] = qHTS for Activators of Parkin Expression: LOPAC Validation Assay (NLuc Reporter) (AID 720572); conditions: Parkin promoter NanoLuc reporter cells, luminescence; series mostly up to 46.1 µM
# Summary of the method: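 Cells harboring the Parkin-promoter coincidence reporter were treated for 24 h at seven concentrations. NLuc output was measured sequentially after the FLuc channel and scaled between DMSO and positive control values.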
# [3] = biological target: Furin (Homo sapiens) (UniProt P09958); assay: Furin counterscreen qHTS for Zika virus inhibitors (AID 1347149); conditions: furin enzymatic counterscreen, fluorogenic substrate; series mostly up to 57.5 µM; also: potency is read from the fitted curve at half-maximal effect; nearly all actives have a fitted effect of over 70% in size
# Sequence of UniProt P09958 (P09958 whole entry, looked up): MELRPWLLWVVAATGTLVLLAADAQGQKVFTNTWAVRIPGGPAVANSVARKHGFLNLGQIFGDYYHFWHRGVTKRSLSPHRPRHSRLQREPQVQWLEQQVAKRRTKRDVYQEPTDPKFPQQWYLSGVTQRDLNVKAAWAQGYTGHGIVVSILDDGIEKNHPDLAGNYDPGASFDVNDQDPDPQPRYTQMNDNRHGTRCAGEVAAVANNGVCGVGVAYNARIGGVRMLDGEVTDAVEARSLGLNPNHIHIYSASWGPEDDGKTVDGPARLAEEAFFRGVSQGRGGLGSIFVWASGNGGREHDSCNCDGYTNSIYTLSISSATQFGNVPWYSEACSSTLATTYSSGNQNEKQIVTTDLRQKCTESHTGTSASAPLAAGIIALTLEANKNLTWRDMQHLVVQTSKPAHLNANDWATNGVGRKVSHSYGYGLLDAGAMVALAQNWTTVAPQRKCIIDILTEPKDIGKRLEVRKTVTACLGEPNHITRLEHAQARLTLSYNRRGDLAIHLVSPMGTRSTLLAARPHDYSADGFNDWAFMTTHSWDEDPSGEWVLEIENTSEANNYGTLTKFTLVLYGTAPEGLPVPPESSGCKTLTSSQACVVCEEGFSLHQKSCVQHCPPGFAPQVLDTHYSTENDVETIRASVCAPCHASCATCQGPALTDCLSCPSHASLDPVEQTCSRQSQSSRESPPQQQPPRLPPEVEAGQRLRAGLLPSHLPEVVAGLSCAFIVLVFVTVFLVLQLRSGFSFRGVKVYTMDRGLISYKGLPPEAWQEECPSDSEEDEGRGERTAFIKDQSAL
# Summary of the method: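 Counterscreen measures cleavage of 2 microM BOC-RVRR-AMC, below its ~15 microM Km, by 5 nM full-length human furin at pH 7.0 after a 15-min compound preincubation. Inhibition derives from the 15-min fluorescence increase at 37C.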
# [4] = biological target: Rap guanine nucleotide exchange factor 4 (Homo sapiens) (UniProt Q8WZA2); assay: Confirmatory qHTS for antagonist of cAMP-regulated guanine nucleotide exchange factor 4 (EPAC2) (AID 1645885); conditions: EPAC2 Rap1B-BODIPY-GDP exchange fluorescence, biochemical; series mostly up to 114 µM; also: nearly all actives have a fitted effect of over 25% in size
# Sequence of UniProt Q8WZA2 (Q8WZA2 whole entry, looked up): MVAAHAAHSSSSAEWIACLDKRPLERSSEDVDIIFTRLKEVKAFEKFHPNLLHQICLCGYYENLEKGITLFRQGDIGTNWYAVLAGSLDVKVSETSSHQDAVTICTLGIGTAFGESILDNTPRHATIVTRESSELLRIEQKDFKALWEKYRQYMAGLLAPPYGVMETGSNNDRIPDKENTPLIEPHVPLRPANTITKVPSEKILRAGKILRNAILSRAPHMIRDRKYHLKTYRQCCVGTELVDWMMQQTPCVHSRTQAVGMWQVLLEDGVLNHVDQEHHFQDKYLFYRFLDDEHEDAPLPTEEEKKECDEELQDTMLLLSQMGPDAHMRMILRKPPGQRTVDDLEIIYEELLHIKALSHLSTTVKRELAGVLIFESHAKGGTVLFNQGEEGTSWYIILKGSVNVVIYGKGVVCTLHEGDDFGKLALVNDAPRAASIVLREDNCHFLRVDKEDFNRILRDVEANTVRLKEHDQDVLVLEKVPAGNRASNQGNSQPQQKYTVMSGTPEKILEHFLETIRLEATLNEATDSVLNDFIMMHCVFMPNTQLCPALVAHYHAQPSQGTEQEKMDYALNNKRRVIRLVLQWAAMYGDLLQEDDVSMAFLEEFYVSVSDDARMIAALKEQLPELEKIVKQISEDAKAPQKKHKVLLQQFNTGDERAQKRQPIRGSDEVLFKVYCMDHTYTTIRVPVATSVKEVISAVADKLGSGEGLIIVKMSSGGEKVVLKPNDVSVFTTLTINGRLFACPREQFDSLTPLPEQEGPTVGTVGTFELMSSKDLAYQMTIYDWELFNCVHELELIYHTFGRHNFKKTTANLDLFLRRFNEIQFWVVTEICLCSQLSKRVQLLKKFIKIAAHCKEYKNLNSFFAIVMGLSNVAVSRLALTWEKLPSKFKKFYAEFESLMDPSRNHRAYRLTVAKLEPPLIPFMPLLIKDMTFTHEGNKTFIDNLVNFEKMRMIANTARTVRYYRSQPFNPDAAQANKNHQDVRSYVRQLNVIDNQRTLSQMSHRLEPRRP
# [5] = biological target: Nuclear receptor subfamily 1 group I member 3 (Homo sapiens) (UniProt Q14994); assay: Primary qHTS for antagonist of constitutive androstane receptor (CAR) against the NCATS DSHEA and TCM libraries (AID 1794836); conditions: CAR reporter cell assay, antagonist mode, luciferase; series mostly up to 40 µM; also: potency is read from the fitted curve at half-maximal effect
# Sequence of UniProt Q14994 (Q14994 whole entry, looked up): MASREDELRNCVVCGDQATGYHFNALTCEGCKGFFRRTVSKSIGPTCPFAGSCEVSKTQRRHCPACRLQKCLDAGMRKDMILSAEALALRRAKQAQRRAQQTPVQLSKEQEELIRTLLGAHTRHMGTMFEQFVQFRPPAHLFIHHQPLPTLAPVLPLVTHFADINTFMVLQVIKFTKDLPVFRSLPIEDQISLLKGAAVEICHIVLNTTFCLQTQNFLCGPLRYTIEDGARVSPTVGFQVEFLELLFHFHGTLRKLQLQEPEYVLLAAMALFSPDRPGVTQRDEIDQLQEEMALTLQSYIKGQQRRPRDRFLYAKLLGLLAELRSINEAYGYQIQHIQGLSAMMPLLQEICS
# Summary of the method: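 HepG2 cells stably carrying hCAR and a CYP2B6 luciferase reporter (2,500 cells/well) attached for 5 h, then received compounds with 48 uM CITCO for 24 h at 37C. ONE-Glo luminescence read antagonism; CellTiter-Fluor (405/540 nm) gave viability.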
# [6] = biological target: Cytochrome P450 3A4 (Homo sapiens) (UniProt P08684); assay: qHTS for inhibitors of CYP3A4 against the NCATS DSHEA and TCM libraries (AID 1919971); conditions: recombinant CYP3A4 enzyme activity, luminescence qHTS; series mostly up to 34.1 µM;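 also: inhibition lowers luminescence from luciferin made by CYP3A4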
# Sequence of UniProt P08684 (P08684 whole entry, looked up, canonical isoform): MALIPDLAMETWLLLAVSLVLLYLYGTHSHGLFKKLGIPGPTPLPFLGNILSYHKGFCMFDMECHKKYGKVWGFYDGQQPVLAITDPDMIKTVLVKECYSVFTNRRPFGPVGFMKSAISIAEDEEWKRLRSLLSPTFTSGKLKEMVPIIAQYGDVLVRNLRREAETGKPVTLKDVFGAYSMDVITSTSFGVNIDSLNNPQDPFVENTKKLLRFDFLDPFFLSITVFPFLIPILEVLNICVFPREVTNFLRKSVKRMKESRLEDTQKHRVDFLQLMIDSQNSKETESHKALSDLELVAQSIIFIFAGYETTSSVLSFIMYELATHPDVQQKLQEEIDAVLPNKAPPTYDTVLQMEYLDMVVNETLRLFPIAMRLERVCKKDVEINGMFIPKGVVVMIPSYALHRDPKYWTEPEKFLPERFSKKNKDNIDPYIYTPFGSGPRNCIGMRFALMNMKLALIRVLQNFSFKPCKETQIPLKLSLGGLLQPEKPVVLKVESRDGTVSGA
# Summary of the method: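 Concentration-response screening with isoform-matched pro-luciferin substrates. The CYP reaction was initiated by NADPH regenerating solution and ran 30-45 min in darkness at room temperature.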
# [7] = biological target: Cytochrome P450 2D6 (Homo sapiens) (UniProt P10635); assay: qHTS for inhibitors of CYP2D6 against the NCATS DSHEA and TCM libraries (AID 1919972); conditions: CYP2D6 enzymatic inhibition, luminescence qHTS; series mostly up to 34.1 µM
# Sequence of UniProt P10635 (P10635 whole entry, looked up): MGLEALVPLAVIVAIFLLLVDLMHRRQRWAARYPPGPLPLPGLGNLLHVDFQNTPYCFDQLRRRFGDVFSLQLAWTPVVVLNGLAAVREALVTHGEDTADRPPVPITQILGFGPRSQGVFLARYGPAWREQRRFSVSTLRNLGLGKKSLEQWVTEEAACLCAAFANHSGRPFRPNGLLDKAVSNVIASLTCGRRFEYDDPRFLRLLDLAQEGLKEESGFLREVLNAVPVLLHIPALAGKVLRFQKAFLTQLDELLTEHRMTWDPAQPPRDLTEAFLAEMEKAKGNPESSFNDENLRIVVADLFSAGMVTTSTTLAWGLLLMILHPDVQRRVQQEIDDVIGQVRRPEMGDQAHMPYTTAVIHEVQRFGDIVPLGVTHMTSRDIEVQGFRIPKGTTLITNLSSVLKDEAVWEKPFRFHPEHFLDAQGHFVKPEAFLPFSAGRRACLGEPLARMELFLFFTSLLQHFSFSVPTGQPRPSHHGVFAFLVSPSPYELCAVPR
# Summary of the method: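 CYP2D6 enzyme with pro-luciferin substrate in manufacturer buffer (typically 100 mM KPO4), preincubated 15 min RT with substances (most at 19.5 nM upward); NADPH regeneration system (1x) started 30–45 min RT reaction; P450-Glo luminescence read after 30 min; quinidine as intraplate control.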
# Tags tell the direction and shape of the fitted curve.
compound,measurement,setting,value
O=C1NCC2(CCN(CCc3ccccc3)CC2)O1,Potency,[1],"inconclusive: 32.6 µM [activator, partial curve, poor fit]"
CC1=C(CC(=O)O)c2cc(F)ccc2/C1=C\c1ccc(S(C)(=O)=O)cc1,Potency,[2],inactive
CC=CCC(C)C(O)C1C(=O)NC(CC)C(=O)N(C)CC(=O)N(C)C(CC(C)C)C(=O)NC(C(C)C)C(=O)N(C)C(CC(C)C)C(=O)NC(C)C(=O)NC(C)C(=O)N(C)C(CC(C)C)C(=O)N(C)C(CC(C)C)C(=O)N(C)C(C(C)C)C(=O)N1C (configuration not stated),Potency,[3],active: 0.0152 µM
NC(=O)NC1NC(=O)NC1=O (configuration not stated),Potency,[4],inactive
same,Potency,[5],"inconclusive: 3.98 µM [inhibitor, full curve]"
same,Potency,[6],inactive
same,Potency,[7],inactive
